Results: PubChem BioAssay AID485281 (National Center for Advancing Translational Sciences (NCATS), 2010)
Where “and” joins values, the source holds several entries; their conditions need not be identical. Identical values can stand only once. Hit rate of the full screen: of about 350,000 compounds, about 260 (0.074%) were called active. Inconclusive results, whose numbers are uncertain, are shown with a selection of clear calls. The call rests on the fitted dose curve; in most records, active means well fitted inhibition curve with a large enough effect; inconclusive means small, poorly fitted or top-dose-only effect; inactive means no such curve, though single readings can be large or run the other way. Where the call is inconclusive, the potency comes from a doubtful curve fit.

Each compound was assayed against Ferritin light chain (Equus caballus) (UniProt P02791) (assay: qHTS Assay for Identification of Novel General Anesthetics). Settings: apoferritin/1-aminoanthracene competitive binding, fluorescence; activity change, negative = displacement: at 77.5 µM (top of the series).
Method in brief: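 Probe: 1-aminoanthracene (50% saturated, PBS). Protein: horse-spleen apoferritin, 10 uM. Incubation: 10 min, room temperature. Detection: 380 nm excitation, 535 nm emission. Analysis: normalized response, four-parameter Hill.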
Further: nearly all actives have a fitted effect of over 20% in size.
On the % scale 0 is the no-effect control and ±100 the full control effect; potency means the concentration at half of the fitted maximal effect; tags describe the fitted curve by direction and shape.

Sequence of UniProt P02791 (P02791 whole entry, looked up): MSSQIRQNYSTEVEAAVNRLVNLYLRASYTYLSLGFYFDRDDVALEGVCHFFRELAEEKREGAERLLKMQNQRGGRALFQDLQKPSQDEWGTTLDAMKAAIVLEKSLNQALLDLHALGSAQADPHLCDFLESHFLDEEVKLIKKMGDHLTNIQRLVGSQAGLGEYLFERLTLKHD

Which Potency does the source give for CC1CCC(NC(=O)c2cc(S(=O)(=O)N3CCCCC3)c[nH]2)CC1 (stereo not drawn) here?
Its Potency is inconclusive: 50.1 µM [inhibitor, single point].

For COc1ccc(C(=O)Nc2ccccc2N2CCCCC2)cc1[N+](=O)[O-], which Potency is on record?
Its Potency is inconclusive: 31.6 µM [inhibitor, partial curve].

For c1ccc(-c2nnc(-c3ccco3)o2)cc1, which “activity change, negative = displacement” value is on record?
The value was inactive: -16.6%.

With Cc1ccc(CSC2=CS(=O)(=O)c3ccccc3N2)cc1 as the compound, how does the Potency read?
The Potency was inconclusive: 14.1 µM [inhibitor, partial curve].

For O=C(c1cccs1)N1CCN(Cc2ccccc2)CC1, which “activity change, negative = displacement” value is on record?
The value was inactive: -9.91%.

How did the activity change, negative = displacement turn out when C[C@@H](c1ccccc1)N1C(=O)[C@@H]2[C@H]3C(=CC[C@H]2C1=O)C(=O)[C@H]1O[C@H]1[C@H]3O was run?
Its activity change, negative = displacement is inactive: -8.58% [at 15.3 µM].

With CN(C)c1ccc(NC(=O)Nc2csc3ccccc23)cc1 as the compound, how does the Potency read?
The Potency was inconclusive: 11.2 µM [inhibitor, full curve].

With O=C(CSc1ncn[nH]1)Nc1ccc(OCc2ccccc2)cc1 as the compound, how does the Potency read?
Its Potency is inconclusive: 15.8 µM [inhibitor, partial curve].

CCc1ccc(CNC(=O)c2ccc3c(Cl)c4c(nc3c2)CCCC4)cc1 was tested. Which Potency did it give?
The Potency was inconclusive: 3.55 µM [inhibitor, full curve, poor fit].

With Nc1ccccc1S(=O)(=O)Nc1cccc2cccnc12 as the compound, how does the Potency read?
The Potency was inconclusive: 25.1 µM [inhibitor, partial curve] and inconclusive: 31.6 µM [inhibitor, single point].

With CC(C)CCOP(=O)(c1ccc(N(C)C)cc1)C(O)c1ccccc1F (stereo not drawn) as the compound, how does the Potency read?
The Potency was inconclusive: 31.6 µM [inhibitor, partial curve].

How did the “activity change, negative = displacement” value turn out when COc1ccc(-c2nc3cc(C(C)C)ccc3o2)cc1NC(=O)c1ccccc1[N+](=O)[O-] was run?
Its value is inactive: -13.5%.

CCOc1ccc(N(Cc2cc3ccc(C)cc3[nH]c2=O)S(=O)(=O)c2ccccc2)cc1 was tested. Which “activity change, negative = displacement” value did it give?
Its value is inactive: -10.9%.

O=C(c1ccc(F)cc1)c1cc2ccc(O)cc2oc1=O was tested. Which “activity change, negative = displacement” value did it give?
The value was inactive: -0.27%.

Which Potency does the source give for CCCSC1=C(C#N)C(c2ccccc2C)C(C(=O)OC)C(=O)N1 (stereo not drawn) here?
The Potency was inconclusive: 35.5 µM [inhibitor, single point].

For C=CCSC1=Nc2sccc2C2=NC(=O)CN12, which Potency is on record?
Its Potency is inconclusive: 25.1 µM [inhibitor, single point].

For CCOc1ccccc1CNC(=O)CCn1c(=O)c2cccn2c2ccc(F)cc21, which “activity change, negative = displacement” value is on record?
The value was inactive: -3.03%.

For Cc1ccccc1NC(=S)NCc1ccccc1, which “activity change, negative = displacement” value is on record?
The value was inactive: 4.35%.

For COc1ccc(-n2nc([N+](=O)[O-])c(=NC3CCN(Cc4ccccc4)CC3)n2O)cc1, which “activity change, negative = displacement” value is on record?
Its value is inactive: -9.89%.

Which “activity change, negative = displacement” value does the source give for COc1ccc(C)cc1NC(=O)CN1c2ccccc2S(=O)(=O)c2ccccc21 here?
Its value is inactive: -15.6%.

COc1ccc(C(=O)CSc2nc(C)cc(C)c2C(=O)Nc2ccccc2C)cc1 was tested. Which Potency did it give?
Its Potency is inconclusive: 3.55 µM [inhibitor, full curve].

How did the Potency turn out when C[n+]1ccc(/C=N/Nc2nc(Cl)c(C#N)c(Cl)c2Cl)cc1 was run?
The Potency was inconclusive: 25.1 µM [inhibitor, partial curve].

CCC(C(=O)NC(C)(C)C)N(C(=O)Cn1nnc(-c2cccs2)n1)c1cnc2ccccc2c1 (stereo not drawn) was tested. Which Potency did it give?
The Potency was inconclusive: 31.6 µM [inhibitor, partial curve].

With O=C(Cc1ccsc1)Nc1ccc(Cl)cc1Cl as the compound, how does the “activity change, negative = displacement” value read?
Its value is inactive: -19.4%.

Which “activity change, negative = displacement” value does the source give for Cc1ccc(C)c(N2CCN(Cc3nnnn3C3CCCCC3)CC2)c1 here?
Its value is inactive: 2.08%.

For O=C(NCc1ccc2c(c1)OCO2)c1cccs1, which Potency is on record?
Its Potency is inconclusive: 28.2 µM [inhibitor, partial curve].

Which Potency does the source give for CC(C)(C)c1ccc(C(=O)NCC(=O)N/N=C/c2cccs2)cc1 here?
The Potency was inconclusive: 39.8 µM [inhibitor, single point].

How did the Potency turn out when O=C(Nc1ccccc1)N1CCC(c2nc(-c3ccc(S(=O)(=O)N4CCOCC4)cc3)no2)CC1 was run?
Its Potency is inconclusive: 15.8 µM [inhibitor, partial curve].

With O=[N+]([O-])c1ccccc1CN1CCN(Cc2c[nH]c3ccccc23)CC1 as the compound, how does the “activity change, negative = displacement” value read?
The value was inactive: -17.2%.

With COc1ccccc1NC(=O)CSc1nnc(-c2ccccc2C)o1 as the compound, how does the “activity change, negative = displacement” value read?
Its value is inactive: -0.0551%.

For O=C(N/N=C/c1ccc(N2CCOCC2)cc1)c1ccccc1OCCOc1ccccc1, which “activity change, negative = displacement” value is on record?
The value was inactive: 231%.

With O=C1CC(Cc2ccccc2)C(=O)N1Cc1ccco1 (stereo not drawn) as the compound, how does the Potency read?
Its Potency is inconclusive: 35.5 µM [inhibitor, partial curve].

With CC(C)OC(=O)/C(=C\C=C\c1ccccc1)NC(=O)c1ccccc1 as the compound, how does the Potency read?
Its Potency is inconclusive: 3.98 µM [inhibitor, full curve, poor fit].

Which Potency does the source give for COCCNC(=O)c1ccc2c(=O)n(CCc3ccccc3)c(SCC(=O)CC(=O)OC)nc2c1 here?
Its Potency is inconclusive: 31.6 µM [inhibitor, single point].

How did the Potency turn out when COCC1CCCN(C(=O)c2ccc3nc(Cc4cccc(Cl)c4)oc3c2)C1 (stereo not drawn) was run?
The Potency was inconclusive: 50.1 µM [inhibitor, single point].

For CCC(C)NC(=O)CSc1nc2cc3c(cc2c(=O)n1CCCC(=O)NCCc1ccc(OC)c(OC)c1)OCO3 (stereo not drawn), which “activity change, negative = displacement” value is on record?
Its value is inactive: 2.22%.

Cc1cccc(C(=O)CC(=O)c2cc(Cl)ccc2O)c1 was tested. Which “activity change, negative = displacement” value did it give?
The value was inactive: -10.2%.

CC1CC1C(=O)OCC(=O)Nc1ccc(N=Nc2ccccc2)cc1 (stereo not drawn) was tested. Which Potency did it give?
The Potency was inconclusive: 31.6 µM [inhibitor, partial curve].

With O=C(Oc1ccc2c(c1)OCO2)C12CC3CC(CC(C3)C1)C2 as the compound, how does the Potency read?
The Potency was inconclusive: 10 µM [inhibitor, partial curve].

How did the Potency turn out when CSc1nc2nccc(-c3ccc(Oc4ccccc4)cc3)n2n1 was run?
Its Potency is inconclusive: 35.5 µM [inhibitor, partial curve].

With COc1ccc(/C=C/C(=O)OCC(=O)NCc2ccco2)c(OC)c1 as the compound, how does the Potency read?
The Potency was inconclusive: 28.2 µM [inhibitor, partial curve].

How did the “activity change, negative = displacement” value turn out when O=C(NC1CCCCCCC1)C1CCC(CNc2c(N3CCCC3)c(=O)c2=O)CC1 (stereo not drawn) was run?
The value was inactive: -5.19%.

COc1ccc(NC2(c3ccc(Cl)cc3)C(=O)c3ccccc3C2=O)cc1 was tested. Which Potency did it give?
Its Potency is inconclusive: 15.8 µM [inhibitor, partial curve].

For Cc1nc(NCC2CCCO2)c2nnn(Cc3ccccc3Cl)c2n1 (stereo not drawn), which Potency is on record?
Its Potency is inconclusive: 28.2 µM [inhibitor, partial curve].

Which Potency does the source give for C#CCOc1ccc2c3c(c(=O)oc2c1)CCCC3 here?
The Potency was inconclusive: 31.6 µM [inhibitor, single point].

How did the “activity change, negative = displacement” value turn out when COc1ccc(CNC(=S)NCc2ccc(Cl)cc2)cc1OC was run?
The value was inactive: -16.3%.

For CN(C)S(=O)(=O)Nc1cccc(Br)c1, which Potency is on record?
Its Potency is inconclusive: 20 µM [inhibitor, partial curve] and inconclusive: 56.2 µM [inhibitor, single point].

How did the Potency turn out when O=C1C2CCC(C2)[C@@H]2CCCCN12 (stereo partly drawn) was run?
The Potency was inconclusive: 50.1 µM [inhibitor, partial curve].

With CCOc1cc(CNS(=O)(=O)c2ccc3c(c2)CC(=O)N3C)cc(OCC)c1OCC as the compound, how does the Potency read?
The Potency was inconclusive: 2.51 µM [inhibitor, partial curve] and inconclusive: 28.2 µM [inhibitor, single point].

Which “activity change, negative = displacement” value does the source give for O=C(COc1ccc(/C=C\[N+](=O)[O-])cc1)N1CCOCC1 here?
Its value is inactive: -2.04%.

For O=C(CC(c1ccccc1)c1cc(Br)ccc1O)N1CCCC1 (stereo not drawn), which Potency is on record?
The Potency was inconclusive: 14.1 µM [inhibitor, partial curve].

With CCS(=O)(=O)n1nc(-c2cccnc2)nc1NCc1ccc(F)cc1 as the compound, how does the “activity change, negative = displacement” value read?
Its value is inactive: -9.49%.

CCOC(=O)C1=C(O)/C(=C/c2ccc(OCC(=O)O)c(OCC)c2)SC1=Nc1ccc(C)cc1 was tested. Which Potency did it give?
The Potency was inconclusive: 31.6 µM [inhibitor, partial curve].

With O=C(NCc1ccc(F)cc1)c1ccc[nH]1 as the compound, how does the Potency read?
The Potency was inconclusive: 28.2 µM [inhibitor, single point].

For Cc1noc(C(=O)Nc2ccccc2C(F)(F)F)c1Cl, which Potency is on record?
Its Potency is inconclusive: 39.8 µM [inhibitor, partial curve].

For O=C(CN(CC1CCCO1)C(=O)CNS(=O)(=O)c1ccc(F)cc1)NCc1ccc(F)cc1 (stereo not drawn), which “activity change, negative = displacement” value is on record?
The value was inactive: -6.64%.

For O=[N+]([O-])c1ccc(O)c(/C=N/n2c(-c3ccccc3)n[nH]c2=S)c1, which Potency is on record?
The Potency was inconclusive: 56.2 µM [inhibitor, single point].

Cc1ccccc1OCC(=O)Nc1ccc(C(=O)Nc2ccccc2C(=O)O)cc1 was tested. Which Potency did it give?
Its Potency is inconclusive: 35.5 µM [inhibitor, single point].

For O=C(COc1ccccc1Cl)N1CCc2ccccc21, which Potency is on record?
The Potency was inconclusive: 28.2 µM [inhibitor, partial curve].

With Cc1cccc(N2CCN(C(=O)c3cccc(NC4=NC5CS(=O)(=O)CC5S4)c3)CC2)c1C (stereo not drawn) as the compound, how does the Potency read?
Its Potency is inconclusive: 11.2 µM [inhibitor, partial curve].

How did the Potency turn out when CN(CC(=O)N1CC=C(c2ccccc2)CC1)S(=O)(=O)c1ccc2c(c1)c(=O)n(C)c(=O)n2C was run?
The Potency was inconclusive: 15.8 µM [inhibitor, partial curve, poor fit].

Which Potency does the source give for Cc1[nH]c2c(Br)cccc2c1[C@H]1[C@@H](CC#N)C1(C)C here?
Its Potency is inconclusive: 35.5 µM [inhibitor, partial curve].

COc1cc(C(=S)N2CCOCC2)ccc1OC(=O)c1ccccc1C was tested. Which Potency did it give?
Its Potency is inconclusive: 50.1 µM [inhibitor, single point].

For O=C(Nc1ccccc1F)N1CCc2ccccc2C1, which Potency is on record?
The Potency was inconclusive: 31.6 µM [inhibitor, partial curve].

With COc1ccc(C(=O)/C=C/C(=O)N(Cc2ccc(F)cc2)C(C(=O)NC2CCCCC2)c2ccncc2)c(O)c1 (stereo not drawn) as the compound, how does the Potency read?
Its Potency is inconclusive: 28.2 µM [inhibitor, partial curve].

For CCOc1ccc(S(=O)(=O)NCCc2csc(-c3ccc(Cl)cc3)n2)cc1, which “activity change, negative = displacement” value is on record?
The value was inactive: -0.283%.

With Cc1cc(Oc2cc(NN3CCCCC3)c([N+](=O)[O-])cc2[N+](=O)[O-])c(C(=O)c2ccccc2)cc1Cl as the compound, how does the Potency read?
The Potency was inconclusive: 28.2 µM [inhibitor, partial curve].

For CCCCOc1ccc(C2C(=O)N(C3CCCCC3)CC(=O)N2CC2CCCO2)cc1 (stereo not drawn), which Potency is on record?
Its Potency is inconclusive: 31.6 µM [inhibitor, single point].
